From PubChem BioAssay AID2147 (National Center for Advancing Translational Sciences (NCATS), 2009)
Where “and” joins values, the source holds several entries; their conditions need not be identical. Identical values can stand only once. Screen size: about 230,000 compounds; about 3,600 (1.6%) were called active. This list was built around the results that the source calls inconclusive (neither active nor inactive); the mix of calls is not that of the screen. Calls follow the shape of the dose curve; as a rule, active = well fitted inhibition curve with a large enough effect (not every such curve was filed as active); inconclusive = small, poorly fitted or top-dose-only effect, or another doubt; inactive = no such curve, though single readings can be large or run the other way. Where the call is inconclusive, the potency comes from a doubtful curve fit.

target: Lysine-specific demethylase 4E (Homo sapiens) (UniProt B2RXH2); assay: qHTS Assay for Inhibitors of Human Jumonji Domain Containing 2E (JMJD2E); settings: JMJD2E catalytic domain, FDH-coupled NADH fluorescence (FDH is formaldehyde dehydrogenase); series mostly up to 57.1 µM
Chain of UniProt B2RXH2 (B2RXH2 whole entry, looked up, the tested form may be a part): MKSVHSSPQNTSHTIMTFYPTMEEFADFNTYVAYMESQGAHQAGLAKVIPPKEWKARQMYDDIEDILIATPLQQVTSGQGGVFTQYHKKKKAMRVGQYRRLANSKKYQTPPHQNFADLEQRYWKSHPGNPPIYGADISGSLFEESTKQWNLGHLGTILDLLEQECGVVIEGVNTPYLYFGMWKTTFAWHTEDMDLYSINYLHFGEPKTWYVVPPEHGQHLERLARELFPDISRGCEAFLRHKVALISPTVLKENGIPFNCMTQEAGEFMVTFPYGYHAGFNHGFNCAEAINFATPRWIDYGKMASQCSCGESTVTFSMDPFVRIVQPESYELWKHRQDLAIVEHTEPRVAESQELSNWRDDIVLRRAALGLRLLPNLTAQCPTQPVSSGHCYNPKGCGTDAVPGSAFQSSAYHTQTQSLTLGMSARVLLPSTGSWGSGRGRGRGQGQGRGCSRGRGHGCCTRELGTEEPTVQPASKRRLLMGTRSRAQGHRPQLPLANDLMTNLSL
Also: nearly all actives have a fitted effect of over 50% in size.
Potency is read from the fitted curve at half-maximal effect; tags tell the direction and shape of the fitted curve.

Row | SMILES | Potency
1 | O=C(Nc1ccc(F)cc1)Nc1ccc(N2CCCC2)c(S(=O)(=O)Nc2ccccc2Cl)c1 | active: 22.4 µM
2 | Cc1ccc(S(=O)(=O)C(C#N)c2nc3ccccc3nc2OC(C)C)cc1 (centres undefined) | inconclusive: 39.8 µM [inhibitor, single point]
3 | CCn1c(CCNC(=O)c2ccccc2Cl)n[nH]c1=S | inactive
4 | Cc1noc(C)c1CSc1ccccc1C(=O)Nc1nccs1 | inactive
5 | COc1cccc(CNCCO)c1OCc1ccccc1 | inconclusive: 39.8 µM [inhibitor, single point]
6 | Oc1c(-c2cc(-c3ccco3)[nH]n2)ccc2ccccc12 | inconclusive: 35.5 µM [inhibitor, single point]
7 | COCCn1c(SCCN2CCCCC2)nc2ccccc2c1=O | inconclusive: 39.8 µM [inhibitor, single point]
8 | COc1cccc(N/C(N)=N/c2nc(C(F)(F)F)cc(=O)[nH]2)c1 | inactive
9 | Cc1cccc(N2CCCn3c2nc2c3c(=O)n(CC(=O)OCc3ccccc3)c(=O)n2C)c1 | inconclusive: 35.5 µM [inhibitor, single point]
10 | O=C(c1ccc(CN2CCc3ccccc3C2)cc1)N1CCc2ccccc2C1 | inactive
11 | Cc1cccn2c(=O)c3cc(C(=O)NC4CCS(=O)(=O)C4)sc3nc12 (centres undefined) | inconclusive: 28.2 µM [inhibitor, partial curve]
12 | O=[N+]([O-])c1ccc(COc2ncnc3ccccc23)cc1 | inactive
13 | COC(=O)c1ccccc1NC(=O)C1COc2ccccc2O1 (centres undefined) | inconclusive: 39.8 µM [inhibitor, single point]
14 | OC(COc1ccc(Cl)c2ccccc12)CN1CCN(c2ccccn2)CC1 (centres undefined) | inconclusive: 39.8 µM [inhibitor, single point]
15 | Cc1nc2ccc3nc(NC(=O)c4ccc(S(=O)(=O)N5CCOCC5)cc4)sc3c2s1 | inconclusive: 7.08 µM [inhibitor, single point]
16 | CC(C)Cn1c(N)c(C(=O)COC(=O)c2cc(-c3ccco3)nc3ccccc23)c(=O)n(C)c1=O | inconclusive: 3.16 µM [inhibitor, full curve] and inconclusive: 25.1 µM [inhibitor, partial curve]
17 | COCCCn1c(=NC(=O)c2ccc3c(c2)OCO3)c(C#N)cc2c(=O)n3cccc(C)c3nc21 | inconclusive: 22.4 µM [inhibitor, partial curve]
18 | CCOC(=O)CN(c1ccccn1)S(=O)(=O)c1ccc(OC)cc1 | inconclusive: 28.2 µM [inhibitor, partial curve]
19 | CCOC1CCc2c(C)nc(N)nc2S1 (centres undefined) | inconclusive: 31.6 µM [inhibitor, partial curve]
20 | O=C(O)c1cnn2c(-c3ccc(F)cc3)ccnc12 | inconclusive: 39.8 µM [inhibitor, single point]
21 | O=C1c2ccccc2NC(c2cccc(F)c2)N1Cc1ccco1 (centres undefined) | inconclusive: 31.6 µM [inhibitor, partial curve]
22 | O=C(CCCOc1ccc(Cl)cc1Cl)Nc1ccc(O)cc1C(=O)O | inconclusive: 35.5 µM [inhibitor, single point]

Row | SMILES | Potency
23 | C=CCOC(=O)C1=C(C)NC(SCC(=O)Nc2nccs2)=C(C#N)C1c1ccc(Cl)cc1 (centres undefined) | inconclusive: 14.1 µM [inhibitor, partial curve]
24 | CCOc1cc(N2CCOCC2)c(OCC)cc1NC(=O)CSc1cccc[n+]1[O-] | inconclusive: 28.2 µM [inhibitor, single point]
25 | O=C(CNC(c1ccccc1)c1ccccc1)Nc1c(F)cccc1F | inactive
26 | NNc1nc2cccnc2n(CCNc2ncc(C(F)(F)F)cc2Cl)c1=O | inconclusive: 25.1 µM [inhibitor, partial curve]
27 | CCN(Cc1cc2cc(C)ccc2[nH]c1=O)C(=O)c1cccc(OC)c1 | inconclusive: 31.6 µM [inhibitor, single point]
28 | CCC(C)NC(=S)Nc1ccc2nc(N3CCN(CC)CC3)cc(C)c2c1 (centres undefined) | inconclusive: 25.1 µM [inhibitor, partial curve]
29 | Cc1nc(SCC(O)CCl)c([N+](=O)[O-])[nH]1 (centres undefined) | inactive
30 | COC/C=C/C1=CC2=CC(=O)C(C)(OC(=O)c3cnc4ccccc4n3)C(=O)C2=CN1Cc1ccco1 (centres undefined) | inconclusive: 5.62 µM [inhibitor, single point]
31 | CN1CCN(c2nc(-c3ccco3)cc(C(F)(F)F)n2)CC1 | inconclusive: 35.5 µM [inhibitor, single point]
32 | CC1CCc2nc(/C(C#N)=C/c3ccncc3)sc2C1 (centres undefined) | inconclusive: 31.6 µM [inhibitor, partial curve]
33 | CCS(=O)(=O)N1CCN(S(=O)(=O)c2ccccc2[N+](=O)[O-])CC1 | inactive
34 | COc1ccc(-c2nn(CC(=O)N(C)C)c(=O)c3ccccc23)cc1 | inconclusive: 31.6 µM [inhibitor, partial curve]
35 | Cc1cc(C)c2[nH]c(=O)c(CN(Cc3ccco3)C(=S)NCC3CCCO3)cc2c1 (centres undefined) | inconclusive: 6.31 µM [inhibitor, single point]
36 | CCCc1cc2c(cc1NS(=O)(=O)c1ccc(CCNC(C)=O)cc1)OCO2 | inconclusive: 31.6 µM [inhibitor, single point]
37 | Cc1ccc(S(=O)(=O)/N=C(/Nc2ccc3[nH]c(=O)[nH]c3c2)c2ccc(F)cc2)cc1 | inactive
38 | Cc1cc(/C=C2/NC(=O)N(Cc3ccccc3F)C2=O)c(C)n1-c1ccccn1 | inconclusive: 20 µM [inhibitor, partial curve]
39 | CCSc1nc(-c2ccccc2)c(C#N)c(=O)[nH]1 | inactive
40 | CCN(CC)c1cc(C)c2cc(NC(=O)c3ccccc3OC)ccc2n1 | inconclusive: 35.5 µM [inhibitor, single point]
41 | Cn1c(-c2ccc3c(c2)OCO3)cnc1NCc1ccc(Cl)cc1 | inconclusive: 28.2 µM [inhibitor, partial curve]
42 | CSc1ccccc1NC(=O)CSc1nnnn1-c1ccccc1SC | inactive
43 | COc1ccccc1CCN1C(=S)NC(C)(C)CC1(C)O (centres undefined) | inactive
44 | Cc1ccc2nc(-c3ccccc3)cc(C(=O)NCC3CCCO3)c2c1 (centres undefined) | inconclusive: 31.6 µM [inhibitor, partial curve]
